The other results are listed elsewhere or left out. Repeats are few or missing, and single values can be far off.
These molecules were tested on A2058 (assay: cell count relative to DMSO control; melanoma cells; higher = more viable cells). Details: library dose: low library concentration; 72 h.
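Note: cell number obtained by counting DAPI-stained nuclei in high-throughput microscope images with image analysis software, screen run in 1,536-well plates.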

Question: How did the cell count turn out when O=C(/C=C/c1cccnc1)NCCCCC1CCN(C(=O)c2ccccc2)CC1 + c1cc(-c2cnn3cc(-c4ccc(OCCN5CCCCC5)cc4)cnc23)ccn1 [Dorsomorphin] (first compound 0.01 µM, partner dose 0.4 µM) was run?
Answer: Its cell count is 109%.

Question: How did the cell count turn out when Cc1ccc(Nc2nccc(N(C)c3ccc4c(C)n(C)nc4c3)n2)cc1S(N)(=O)=O [Pazopanib] + CCCCCCCCCCCC1=C(O)C(=O)C=C(O)C1=O [Embelin] (first compound 0.4 µM, partner dose 1.2 µM) was run?
Answer: Its cell count is 94.7%.

Question: With Cc1ccc(Nc2nccc(N(C)c3ccc4c(C)n(C)nc4c3)n2)cc1S(N)(=O)=O [Pazopanib] + COc1ccc(-c2ccc3c(N4CCOCC4)nc(N4C[C@@H](C)O[C@@H](C)C4)nc3n2)cc1CO [KU0063794] (first compound 0.4 µM, partner dose 0.02 µM) as the molecule, how does the cell count read?
Answer: The cell count was 104%.

Question: With O=C(/C=C/c1cccnc1)NCCCCC1CCN(C(=O)c2ccccc2)CC1 + Cn1cncc1[C@@](N)(c1ccc(Cl)cc1)c1ccc2c(c1)c(-c1cccc(Cl)c1)cc(=O)n2C [tipifarnib] (first compound 0.01 µM, partner dose 0.01 µM) as the molecule, how does the cell count read?
Answer: Its cell count is 97.3%.

Question: Cc1ccc(Nc2nccc(N(C)c3ccc4c(C)n(C)nc4c3)n2)cc1S(N)(=O)=O [Pazopanib] + Oc1nc(-c2ccc(C(F)(F)F)cc2)nc2c1CSCC2 [XAV939] (first compound 0.4 µM, partner dose 2 µM) was tested. Which cell count did it give?
Answer: Its cell count is 86.4%.

Question: O=C(/C=C/c1cccnc1)NCCCCC1CCN(C(=O)c2ccccc2)CC1 + COc1ccc2c(c1)CCC1C2CCC2(C)C(NCCCCCCN3C(=O)C=CC3=O)CCC12 [U73122] (first compound 0.01 µM, partner dose 0.4 µM) was tested. Which cell count did it give?
Answer: The cell count was 97.5%.

Question: CC1(C)CCC(c2ccc(Cl)cc2)=C(CN2CCN(c3ccc(C(=O)NS(=O)(=O)c4ccc(N[C@H](CCN5CCOCC5)CSc5ccccc5)c(S(=O)(=O)C(F)(F)F)c4)cc3)CC2)C1 + NC(=O)c1ccc(N(C(N)=O)c2c(F)cccc2F)nc1-c1ccc(F)cc1F [VX702] (first compound 0.4 µM, partner dose 0.4 µM) was tested. Which cell count did it give?
Answer: The cell count was 85.7%.

Question: CC1(C)CCC(c2ccc(Cl)cc2)=C(CN2CCN(c3ccc(C(=O)NS(=O)(=O)c4ccc(N[C@H](CCN5CCOCC5)CSc5ccccc5)c(S(=O)(=O)C(F)(F)F)c4)cc3)CC2)C1 + CCc1ccc(CCOc2ccc(CC3SC(=O)NC3=O)cc2)nc1 [pioglitazone] (first compound 0.4 µM, partner dose 2 µM) was tested. Which cell count did it give?
Answer: The cell count was 89.7%.

Question: Which cell count does the source give for O=C(/C=C/c1cccnc1)NCCCCC1CCN(C(=O)c2ccccc2)CC1 + Cc1ccc(NC(=O)c2cccc(N(C)C)c2)cc1NC(=O)c1ccc(O)cc1 [ZM336372] (first compound 0.01 µM, partner dose 2 µM) here?
Answer: The cell count was 119%.

Question: Which cell count does the source give for Cc1ccc(Nc2nccc(N(C)c3ccc4c(C)n(C)nc4c3)n2)cc1S(N)(=O)=O [Pazopanib] + Cc1cc([N+](=O)[O-])ccc1NS(=O)(=O)c1cc(Cl)ccc1Cl [FH535] (first compound 0.4 µM, partner dose 1 µM) here?
Answer: Its cell count is 84%.

Question: Which cell count does the source give for CC1(C)CCC(c2ccc(Cl)cc2)=C(CN2CCN(c3ccc(C(=O)NS(=O)(=O)c4ccc(N[C@H](CCN5CCOCC5)CSc5ccccc5)c(S(=O)(=O)C(F)(F)F)c4)cc3)CC2)C1 + CCN(CC)CCCCNc1ncc2cc(-c3cc(OC)cc(OC)c3)c(NC(=O)NC(C)(C)C)nc2n1 [PD173074] (first compound 0.4 µM, partner dose 0.1 µM) here?
Answer: The cell count was 101%.

Question: With O=C(/C=C/c1cccnc1)NCCCCC1CCN(C(=O)c2ccccc2)CC1 + COc1ccc(-c2ccc3c(N4CCOCC4)nc(N4C[C@@H](C)O[C@@H](C)C4)nc3n2)cc1CO [KU0063794] (first compound 0.01 µM, partner dose 0.02 µM) as the molecule, how does the cell count read?
Answer: Its cell count is 104%.

Question: For O=C(/C=C/c1cccnc1)NCCCCC1CCN(C(=O)c2ccccc2)CC1 + O=c1cc(-c2cccc3c2Sc2ccccc2S3)oc(N2CCOCC2)c1 [KU55933] (first compound 0.01 µM, partner dose 1 µM), which cell count is on record?
Answer: Its cell count is 91.9%.

Question: Cc1ccc(Nc2nccc(N(C)c3ccc4c(C)n(C)nc4c3)n2)cc1S(N)(=O)=O [Pazopanib] + COc1ccc(COc2ccc(Cc3cnc(N)nc3N)cc2OC)cc1 [GW2580] (first compound 0.4 µM, partner dose 1 µM) was tested. Which cell count did it give?
Answer: Its cell count is 94.5%.
